Assay results: PubChem BioAssay AID1362 (SRMLSC, 2008)
Some of the results follow. These are further read-outs of the screen, such as a control signal, another cell line or another target. No call is given for them. Most of these compounds were active or inconclusive in the main read-out, so they are no random draw.

Test: growth inhibition of WT strain, primary screen, mitochondrial fusion inhibitor project, WT and mutant strains, chemical genetic (AID 1362); note: tested in S. cerevisiae
Details: mitochondrial fusion phenotypic screen, at 10 µM

Row | SMILES | inhibition [%]
1 | Cc1onc(-c2ccccc2Cl)c1C(=O)Nc1nnc(-c2ccc(Br)cc2)s1 | 16.6
2 | COC(=O)c1cn(N(C)c2ncc(C(F)(F)F)cc2Cl)c(=O)c2ccccc12 | 22.1
3 | O=[N+]([O-])c1ccc(Nc2nc(NC3CCCCC3)nc(N3CCCC3)n2)cc1 | 44
4 | CC(C)Oc1ccc(C(=O)NC2(C(F)(F)F)NC(=O)N(CCCc3ccccc3)C2=O)cc1 (stereo not drawn) | 3.08
5 | Cc1cc(Cl)ccc1OCC(=O)NCCCCc1ccccc1 | 27.4
6 | Cc1cc(C)c2nc(N3CCC(C(=O)NCCCN4CC(C)CC(C)C4)CC3)sc2c1 (stereo not drawn) | 30.5
7 | Cc1cccc(OCC(=O)Nc2ccc3nc(C)sc3c2)c1 | 58.1
8 | Clc1ccc2c(N/N=C/c3ccc(Br)cc3)ccnc2c1 | 98.3
9 | Cc1nc(N2CCCCC2)c2c(-c3cccs3)csc2n1 | 17.4
10 | O=C(NCc1nnc(SCc2ccc(C(F)(F)F)cc2)n1-c1ccccc1)C12CC3CC(CC(C3)C1)C2 | 14.4
11 | O=C1c2ccccc2-c2n[nH]c(=O)c3ccc(N4CCCCC4)c1c23 | 30.2
12 | O=C(COc1ccc(Cl)cc1Cl)NCCCCc1ccccc1 | 43.6
13 | c1ccc(N(c2ccccc2)c2nc(N3CCCC3)nc(-n3ccnc3)n2)cc1 | 25
14 | O=C1Nc2ccccc2/C1=N\N=C\C1=C(N2CCOCC2)C(=C\c2ccccc2)/CC1 | 45.9
15 | CN=C(Nc1cc(Cl)ccc1Cl)SC1CC(=O)N(c2ccc(C(=O)OC)cc2)C1=O (stereo not drawn) | 40
16 | Cc1nc(N2CCCCC2)c2c(C)c(C(=O)Nc3cccc(C(F)(F)F)c3)sc2n1 | 8.83
17 | Cc1cccc(NC(=O)c2cc3n(n2)C(C(F)(F)F)CC(c2ccc4c(c2)OCO4)N3)c1 (stereo not drawn) | 45
18 | S=C(NCCc1ccccc1)NC1CCCCCC1 | 60.7
19 | COc1ccc(NC(=O)c2cc3n(n2)C(C(F)(F)F)CC(c2ccc4c(c2)OCO4)N3)cc1OC (stereo not drawn) | 50
20 | COc1ccc(-c2nnc3n(CCc4ccccc4)c(=O)c4ccccc4n23)c(OC)c1 | 93.4
21 | COc1ccc(/C=N/Nc2cc(N3CCCC3)nc(N3CCCC3)n2)cc1 | 63
22 | S=C(NCC1CCCO1)N1CCN(c2nc(-c3ccc(Cl)cc3)cs2)CC1 (stereo not drawn) | 36.8
23 | O=C1c2ccccc2C(=O)c2cc(S(=O)(=O)Nc3ccccc3)ccc21 | 25.8

Row | SMILES | inhibition [%]
24 | COc1ccc(/C=N/NC(=O)c2ccn[nH]2)cc1COc1ccc(Cl)cc1Cl | -4.76
25 | CCCSc1nc(NCc2ccco2)c2c3c(sc2n1)COC(C)(C)C3 | 40.2
26 | CC(NCC(O)COC1CCC(C(C)(C)C)CC1)c1ccccc1 (stereo not drawn) | 61.6
27 | CCNC(=S)N/N=C(\C)c1ccc2ccccc2c1 | 63
28 | N#CC1=C(N)SC(N)=C(C#N)C1c1c(Cl)cccc1Cl | -1.3
29 | CCOc1cc(/C=C2\SC(=S)N(Nc3ccccc3)C2=O)ccc1O | 60
30 | Cc1ccccc1Nc1cc(C)c2c(O)cccc2n1 | 40.8
31 | O=C(/C=C/c1ccco1)Nc1cccc(NC(=O)/C=C/c2ccco2)n1 | 51.4
32 | OCCN(CCO)CC(O)COc1ccc(C23CC4CC(CC(C4)C2)C3)cc1 (stereo not drawn) | 25.5
33 | O=C(Nc1ccc(NC(=S)NC(=O)c2ccccc2F)cc1)c1cccs1 | 31.2
34 | CCOc1ccc2nc(NC(=O)c3ccoc3C)sc2c1 | 78.3
35 | CN1CCN(c2ccc(-c3ccc4ccccc4n3)cc2)CC1 | 64.8
36 | CC(/C=C/c1ccccc1)=N\NC(=S)NC(C)C | 68.2
37 | Cc1cc(C(C)(C)C)ccc1OCCn1ccnc1 | 69.1
38 | C/C(=N/Nc1cc(-c2ccccc2)nc(-c2ccccc2)n1)c1ccc(O)cc1 | 77.2
39 | Fc1ccc(-c2csc3ncnc(N4CCc5ccccc5C4)c23)cc1 | -24.2
40 | Cc1ccc(OCC(=O)NNC(=S)NC(=O)C(C)(C)C)c(Br)c1 | 82.2
41 | Fc1ccccc1Nc1nc2c(s1)CCc1ccccc1-2 | 13.5
42 | O=C(CCCSc1ccccc1)Nc1nc(-c2ccccn2)cs1 | 66.5
43 | CC1(C)CC(c2nc(-c3ccccc3)cs2)CCS1 (stereo not drawn) | 17.3
44 | O=C(Cc1ccc(Cl)cc1)NC(=S)Nc1ccccc1N1CCOCC1 | 7.08
45 | CC(C)CCn1c(O)c(N=Nc2ccccn2)c2ccccc21 | 18.7
46 | CCOC(=O)/C(=C\c1ccc(OC(F)F)cc1)C1=Nn2c(nnc2-c2ccc(Cl)cc2)SC1 | 14.3

Row | SMILES | inhibition [%]
47 | COC(=O)c1cc2ccccc2c(-c2c(OC)c(C(=O)OC)cc3ccccc23)c1OC | 47.2
48 | S=C(NCCCc1ccccc1)Nc1ccccc1Cl | 57.8
49 | COc1cccc(-c2nc(OC(C)C)c3ccccc3n2)c1 | 9.47
50 | CN(C)c1ccc(/C=N/NC(=S)NCc2ccccc2)cc1 | 61.6
51 | CCc1ccc(C(O)(c2ccccc2OC)C(CN2CCOCC2)c2ccccc2)cc1 (stereo not drawn) | 59.4
52 | CCOC(=O)C1CCCN(C(=O)CN2C(=O)/C(=C/c3ccc(OC)cc3)Oc3ccccc32)C1 (stereo not drawn) | 12.7
53 | O=C(c1ccc(Cl)cc1)N1CCC(O)(CSc2ccc(Cl)cc2Cl)CC1 | 67.5
54 | Cc1ccc(C)c(N2CCN(C(=O)c3csc4ccccc34)CC2)c1 | 32.5
55 | CC(C)=CCC/C(C)=C/Cc1c(O)ccc(C(=O)/C=C/c2ccc(O)cc2)c1O | 64
56 | CCCCCC1CC(CC(=O)NC(=S)Nc2ccccc2Cl)C(=O)O1 (stereo not drawn) | 18.2
57 | C(=C\c1ccccc1)/CN1CCN(c2ncnc3c2oc2ccccc23)CC1 | 32.1
58 | NNC(=O)c1cc2c(N3CCC(Cc4ccccc4)CC3)ncnc2s1 | -16.4
59 | Cc1ccc(Oc2nc(CN3CCOCC3)nc3sc4c(c23)CCC(C)C4)cc1C (stereo not drawn) | 20.7
60 | C/C(CCC(C)C)=N\NC(=S)NCc1ccccc1 | 48.8
61 | CNC(=S)N1N=C(c2ccc(C)cc2)CC1c1ccc(Br)cc1 (stereo not drawn) | 53.4
62 | Cc1ccc(CCc2nnc(SCC(=O)Nc3cc(Cl)ccc3Cl)n2-c2ccccc2)o1 | 13
63 | CC(C)[C@@H]1CC[C@@H](C)c2c(-c3ccccc3)n[nH]c21 | 17.3
64 | Cc1ccccc1NS(=O)(=O)c1cc(C(=O)N2CCc3ccccc3C2)ccc1C | -2.04
65 | CC(=O)C1=C(c2ccc(Br)cc2)C(=O)c2ccccc2C1=O | 90.8
66 | c1ccc(Cn2c(SCc3cn4cccnc4n3)nnc2-c2ccco2)cc1 | 11
67 | CCCCCCCCCc1nc2sc3c(c2c(=O)n1NC(=O)c1ccc([N+](=O)[O-])cc1)CC(C)(C)OC3 | 22.3
68 | CC1(c2ccc(Cl)cc2Cl)OCC(Cn2ccnc2)O1 (stereo not drawn) | 42.9
